Data as given in the supplement of paper PMC5655136.
Values come from read counts of a selection and are noisy.

The sequences below were run on NB7 (assay: fold depletion of shRNA, plasmid library share / infected cells without Dox share (9 days) (ratio); higher = more depleted after infection (more toxic, leaky expression from a Tet-inducible vector; NB7 is a neuroblastoma line without caspase-8)). Conditions: shRNA pool: CD95L ORF + CD95L 3'UTR + Venus libraries.
Protocol: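 Pooled lethality screen in NB7 neuroblastoma cells infected with Dox-inducible pTIP shRNA libraries. The libraries tile every 21-mer of the Venus, CD95L or CD95 ORF / 3'UTR; each hairpin is the 21-nt sense sequence + CTCGAG loop + antisense. Cells were cultured 9 days with or without 100 ng/ml Dox. shRNA representation was measured by deep sequencing of the genomic inserts, normalised to the total reads per subpool and averaged over technical replicates. Fold depletion is the plasmid library share / infected cells without Dox share (mean of 2 biological replicates), and the -Dox/+Dox share ratio is the mean of 4 replicate pairings; higher values mean more depletion (toxicity).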
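Note: shRNA barcodes quantified by deep sequencing of PCR amplicons from cellular DNA, counts expressed as percent of each subpool, ratio averaged over two biological duplicates.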

| Sequence | fold depletion of shRNA |
| --- | --- |
| AGGACGACGGCAACTACAAGA | 1.43 |
| AGGACGGCAACATCCTGGGGC | 0.719 |
| AGGACGGCGGCGTGCAGCTCG | 2.08 |
| AGGAGCTGAGGAAAGTGGCCC | 0.46 |
| AGGAGCTGGCAGAACTCCGAG | 6.79 |
| AGGAGCTGTTCACCGGGGTGG | 1.36 |
| AGGATTGGGCCTGGGGATGTT | 29.4 |
| AGGATTTAAGGGATGGAAAAG | 2.57 |
| AGGCAAGTCCAACTCAAGGTC | 0.818 |
| AGGCACCGAGAATGTTGTATT | 3.37 |
| AGGCAGATTGAAAAGGACACC | 1.38 |
| AGGCCAACTTCAAGATCCGCC | 2.08 |
| AGGCCAATGCCCCACTGGCAG | 1.97 |
| AGGCCACCCCAGTCCACCCCC | 35.2 |
| AGGCTACGTCCAGGAGCGCAC | 0.675 |
| AGGCTGAAAGAGGCCAATGCC | 1.67 |
| AGGCTTGCATAATAAGCTAAA | 2.17 |
| AGGGAACCACAGCACAGGCCT | 15.1 |
| AGGGAGAAGCATGAAAAAGCA | 1.02 |
| AGGGCATCGACTTCAAGGAGG | 4.31 |
| AGGGCGACACCCTGGTGAACC | 1.17 |
| AGGGCGAGGAGCTGTTCACCG | 1.41 |

| Sequence | fold depletion of shRNA |
| --- | --- |
| AGGGCGAGGGCGATGCCACCT | 1.26 |
| AGGGGAAGATGATGAGCTACT | 0.622 |
| AGGGGTGTGTGTGTGTGTGTG | 1.02 |
| AGGGTCTTCTTACATGCATTT | 0.539 |
| AGGGTTCAAAATGTCTGTAGC | 2.54 |
| AGGTCAAGTAAGAAGACATGA | 3.04 |
| AGGTCTACATGAGGAACTCTA | 1.47 |
| AGGTGAAGTTCGAGGGCGACA | 1.73 |
| AGGTGGGCCTTGCTACCTCAA | 0.686 |
| AGGTGTTCTACACTCATCTTA | 3.73 |
| AGTAAGAAGACATGAACCAAG | 2.01 |
| AGTACAACTACAACAGCCACA | 3.52 |
| AGTACATATTAGGAAAATATG | 0.635 |
| AGTATAAGAAGGGTGGCCTTG | 0.293 |
| AGTATACTTCCGGGGTCAATC | 3.04 |
| AGTATCCCCAGGATCTGGTGA | 1.81 |
| AGTATTTAGGCAGATTGAAAA | 1.61 |
| AGTCCAACTCAAGGTCCATGC | 23.6 |
| AGTCCACCCCCTGAAAAAAAG | 10.5 |
| AGTCCGCCCTGAGCAAAGACC | 1.71 |
| AGTCTACCAGCCAGATGCACA | 0.322 |
| AGTGAAGTATAAGAAGGGTGG | 0.981 |

| Sequence | fold depletion of shRNA |
| --- | --- |
| AGTGAGGGTCTTCTTACATGC | 4.28 |
| AGTGCAATTGTAGGGGTGTGT | 2.46 |
| AGTGCCAGCTCTCCCTGGGCC | 5.44 |
| AGTGCTGATCATTTATATGTC | 0.769 |
| AGTGCTTAAAAATCATTGATT | 1.54 |
| AGTGCTTCGCCCGCTACCCCG | 2.09 |
| AGTGGACCTTGAGACCACAGG | 2.99 |
| AGTGGCCCATTTAACAGGCAA | 1.16 |
| AGTGTTCAATCTTACCAGTGC | 3.09 |
| AGTTCAGCGTGTCCGGCGAGG | 0.763 |
| AGTTCGAGGGCGACACCCTGG | 1.13 |
| AGTTCGTGACCGCCGCCGGGA | 0.967 |
| AGTTCTTCCCTGTCCAACCTC | 67 |
| ATAAAAAGTATATGTTAGGAT | 0.727 |
| ATAAATATTTATGTAGATGTG | 1.42 |
| ATAAGCAAGAGAGATGTTTTG | 0.593 |
| ATAAGCTAAAGAGGCTGAAAG | 3.38 |
| ATAATAAATATTTATGTAGAT | 0.8 |
| ATAATAAGCTAAAGAGGCTGA | 1.02 |
| ATAATATAATAAATATTTATG | 1 |
| ATACATGGTTGTGACCTGAGG | 1.25 |
| ATACTTCCGGGGTCAATCTTG | 14 |

Same assay, conditions: shRNA pool: CD95 ORF + CD95 3'UTR + Venus libraries

| Sequence | fold depletion of shRNA |
| --- | --- |
| AGGACGACGGCAACTACAAGA | 1.21 |
| AGGACGGCAACATCCTGGGGC | 1.11 |
| AGGACGGCGGCGTGCAGCTCG | 0.621 |
| AGGAGAGTATTACTAGAGCTT | 1.71 |
| AGGAGGACGGCAACATCCTGG | 0.714 |
| AGGAGTACACAGACAAAGCCC | 1.51 |
| AGGAGTGTATGCAGAGGATGA | 5.13 |
| AGGATGAAAGATTAAGATTAT | 1.57 |
| AGGATTTTTTTGCCCCTTGTG | 0.527 |
| AGGCCAACTTCAAGATCCGCC | 1.17 |
| AGGCCACTTTGCCTCTAAATT | 0.929 |
| AGGCCTGCATCATGATGGCCA | 1.84 |
| AGGCTAACCCCACTCTATGAA | 40.1 |
| AGGCTACGTCCAGGAGCGCAC | 0.492 |
| AGGCTCTACCTCAAAGACCTT | 3.03 |
| AGGGAAGGAGTACACAGACAA | 1.16 |
| AGGGACTGCACAGTCAATGGG | 0.763 |
| AGGGATTGGAATTGAGGAAGA | 1.32 |
| AGGGCATCGACTTCAAGGAGG | 0.867 |
| AGGGCGACACCCTGGTGAACC | 1.6 |
| AGGGCGAGGAGCTGTTCACCG | 1.82 |
| AGGGCGAGGGCGATGCCACCT | 0.814 |
| AGGTAAAAGTACGTAATTAAA | 0.806 |
| AGGTGAAAGGAAAGCTAGGGA | 2.88 |

| Sequence | fold depletion of shRNA |
| --- | --- |
| AGGTGAAGTTCGAGGGCGACA | 1.38 |
| AGTAAATATATCACCACTATT | 0.635 |
| AGTACAAATGTCTATCCACAG | 1.16 |
| AGTACACAGACAAAGCCCATT | 1.05 |
| AGTACAGAAAACATGCAGAAA | 2.39 |
| AGTACCCAAATAGGAGTGTAT | 1.32 |
| AGTACGTAATTAAATAATGTT | 0.945 |
| AGTAGCTTTGTGACATGTCAT | 0.387 |
| AGTATATGCAATTAGTGTTTG | 1.65 |
| AGTATATGTATTTGAGTGCAG | 1.15 |
| AGTATGAATGTAATCAGTGTA | 2.74 |
| AGTATTACTAGAGCTTTGCCA | 1.39 |
| AGTCAAGTTAAAGGCTTTGTT | 1.31 |
| AGTCAATGGGGATGAACCAGA | 4.47 |
| AGTCATGACACTAAGTCAAGT | 3.01 |
| AGTCCACCAAAAGGCAAGACT | 2.37 |
| AGTCCGCCATGCCCGAAGGCT | 2.99 |
| AGTCCGCCCTGAGCAAAGACC | 1.21 |
| AGTGAAAAACAACAAATTCAG | 1.09 |
| AGTGACTCAGAAAATTCAAAC | 1.83 |
| AGTGACTGACATCAACTCCAA | 7.57 |
| AGTGCAAAGAGGAAGGATCCA | 1.93 |
| AGTGCAGAATTTAAATAAGGC | 1.94 |
| AGTGCAGATGTAAACCAAACT | 1.47 |

| Sequence | fold depletion of shRNA |
| --- | --- |
| AGTGCTTCGCCCGCTACCCCG | 2.34 |
| AGTGGAAATAAACTGCACCCG | 4.62 |
| AGTGGCAATAAATTTATCTGA | 0.713 |
| AGTGTATGCAGAGGATGAAAG | 1.94 |
| AGTGTATGTTAGTACAAATGT | 0.97 |
| AGTGTTAATGCCCAAGTGACT | 2.2 |
| AGTGTTTGAAAAGATTCTTAA | 0.63 |
| AGTTAAAGGCTTTGTTCGAAA | 0.916 |
| AGTTACTGAACAGGCAGGCCA | 8.09 |
| AGTTATAAACTGAAGCAGATA | 0.94 |
| AGTTCAACTGCTTCGTAATTG | 2.43 |
| AGTTCAGCGTGTCCGGCGAGG | 0.542 |
| AGTTCGAGGGCGACACCCTGG | 0.988 |
| AGTTCGTGACCGCCGCCGGGA | 0.844 |
| AGTTCTGAGTATATGCAATTA | 1.26 |
| AGTTGAGACTCAGAACTTGGA | 1.02 |
| AGTTGGGAAAACAAACTTCAT | 0.895 |
| AGTTTATTGGTGTCATATTAT | 1.01 |
| AGTTTCTAAGATTTAAGATTC | 0.687 |
| AGTTTGTATTAAATGTGAATT | 1.32 |
| ATAAAATAGATTCTTATTTTT | 0.961 |
| ATAAAATATAGGTAAAAGTAC | 0.998 |
| ATAAACTGAAGCAGATACCTG | 1.34 |
| ATAAACTGCACCCGGACCCAG | 2.02 |

| Sequence | fold depletion of shRNA |
| --- | --- |
| ATAAATTTATCTGATGTTGAC | 1.11 |
| ATAACTCTGAGAAGATCATAT | 0.971 |
| ATAATATTTATATTTCTGTAA | 1.06 |
| ATAATGTCCCATGTAAAACCT | 3.19 |
| ATAATGTTTGACTATTATATA | 0.792 |
| ATAATTCTAGAGATTTTACCA | 1.35 |
| ATACAATATTTCAATTGTGAA | 0.869 |
| ATACATAGCAATGGTAAAATC | 0.443 |
| ATACCAAGTGCAGATGTAAAC | 0.993 |
| ATACCCCCAAGTTTCTAAGAT | 1.54 |
| ATACCTGGAACCACCTAAAGA | 2.48 |
| ATACTAACTGCTCTCAGAGAA | 1.56 |
| ATACTGCTTGGTTTTTTACTG | 3.21 |
| ATACTTAATAGTCCACCAAAA | 1.02 |
| ATAGAAAACATTAAATTATAA | 1.21 |
| ATAGAAGAAGCTATGACCTTT | 1.18 |
| ATAGATGAGATCAAGAATGAC | 1.61 |
| ATAGATTCTTATTTTTCCCCC | 0.711 |
| ATAGCAATGGTAAAATCATCA | 1.48 |
| ATAGCTGGCTGTAAATACTGC | 1.06 |
| ATAGGAGTGTATGCAGAGGAT | 1.23 |
